Experimental findings from article PMC4336329 (PLoS ONE, 2015) are described below.

Each structure is given as a SMILES string. About 2,200 (0.71%) of roughly 310,000 compounds showed an effect of 50% or more. Effects have a minus sign here. The list shows a part of the results.

For the test, the target named is human ether-à-go-go-related gene (hERG) potassium channel (human, UniProt Q12809). The experiment in a line: primary screen, population patch clamp on CHO cells stably expressing hERG.
Chain of human ether-à-go-go-related gene (hERG) potassium channel (Q12809 whole entry, looked up): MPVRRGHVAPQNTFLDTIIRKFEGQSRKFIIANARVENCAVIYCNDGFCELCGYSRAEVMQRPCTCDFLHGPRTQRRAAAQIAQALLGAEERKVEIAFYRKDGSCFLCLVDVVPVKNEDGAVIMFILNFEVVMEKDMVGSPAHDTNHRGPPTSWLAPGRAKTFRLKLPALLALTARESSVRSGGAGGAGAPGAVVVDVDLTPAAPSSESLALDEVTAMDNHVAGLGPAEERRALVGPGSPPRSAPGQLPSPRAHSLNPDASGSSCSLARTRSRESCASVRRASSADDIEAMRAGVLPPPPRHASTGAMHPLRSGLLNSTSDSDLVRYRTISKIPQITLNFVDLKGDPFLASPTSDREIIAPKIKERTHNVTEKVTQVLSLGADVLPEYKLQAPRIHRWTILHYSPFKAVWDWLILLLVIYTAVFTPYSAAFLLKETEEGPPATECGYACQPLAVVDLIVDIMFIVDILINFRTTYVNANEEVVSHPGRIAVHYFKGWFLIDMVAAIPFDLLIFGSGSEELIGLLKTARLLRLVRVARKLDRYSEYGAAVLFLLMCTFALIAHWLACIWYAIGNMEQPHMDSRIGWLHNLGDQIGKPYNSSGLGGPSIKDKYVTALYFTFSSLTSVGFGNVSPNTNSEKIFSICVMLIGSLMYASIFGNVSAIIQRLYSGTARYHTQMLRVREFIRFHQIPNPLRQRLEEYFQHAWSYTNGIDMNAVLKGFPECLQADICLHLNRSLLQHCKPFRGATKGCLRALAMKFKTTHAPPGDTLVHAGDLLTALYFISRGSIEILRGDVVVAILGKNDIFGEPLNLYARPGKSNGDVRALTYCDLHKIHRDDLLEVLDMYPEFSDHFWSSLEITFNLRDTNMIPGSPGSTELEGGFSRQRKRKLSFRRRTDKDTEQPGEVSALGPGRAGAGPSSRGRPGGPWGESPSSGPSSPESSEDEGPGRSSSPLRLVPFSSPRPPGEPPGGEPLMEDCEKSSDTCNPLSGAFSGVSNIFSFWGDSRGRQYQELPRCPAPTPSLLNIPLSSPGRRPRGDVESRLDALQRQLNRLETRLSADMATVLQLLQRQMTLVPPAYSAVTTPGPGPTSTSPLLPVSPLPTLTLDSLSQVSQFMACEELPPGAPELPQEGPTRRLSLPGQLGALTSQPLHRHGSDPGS
Turning to `CCN(CC)S(=O)(=O)c1cccc(C(=O)Nc2cc3oc4ccccc4c3cc2OC)c1`, the “hERG current change (%, negative = inhibition) at 1uM” value is 10.4%.
Then `COc1ccc(NC(C)=O)cc1NC(C)C(=O)Nc1cccc(S(=O)(=O)N2CCOCC2)c1` (stereo not drawn), with 9.65%; and `Cc1cccc(C)c1NC(=O)CCCCCNS(=O)(=O)c1ccccc1`, with 8.52%; and `COc1cc(C(=O)OCCc2c(C)nc3nc[nH]n3c2=O)cc(OC)c1OC`, with 20.4%.
`c1ccc(P(c2ccccn2)c2ccccn2)cc1`: the “hERG current change (%, negative = inhibition) at 1uM” value stood at 12.2%.
As for `CC(=O)c1c(C)oc2ccc(OCc3ccccc3)cc12`, the “hERG current change (%, negative = inhibition) at 1uM” value is 3.03%.
To `Oc1oc(-c2ccccc2)nc1C=NCc1ccccc1` belongs 16.8%; to `O=C(COC(=O)c1cccc(S(=O)(=O)N2CCOCC2)c1)Nc1nc(-c2ccccc2Cl)cs1`, -3.93%.
To `CNCC(=O)Nc1ccc(OC(F)(F)F)cc1.Cl` belongs 2.4%; to `O=C(Cc1ccccc1)NCC(=O)OCC(=O)c1ccc(Cl)cc1`, 11.8%.
`CN(C)S(=O)(=O)c1cccc(CNCC2COc3ccccc3O2)c1.O=C(O)C(=O)O` (stereo not drawn): the “hERG current change (%, negative = inhibition) at 1uM” value is on record as -0.379%.
Turning to `CNC(=S)Nc1cc(Cl)ccc1Oc1ccccc1`, the “hERG current change (%, negative = inhibition) at 1uM” value is given as 0.574%.
Take `COC(=O)C1=C(CCc2ccccc2)NC(=O)NC1c1ccc(Cl)cc1` (stereo not drawn): the “hERG current change (%, negative = inhibition) at 1uM” value was 8.42%.
To `O=C(NC1CN2CCC1CC2)c1cccc(Cl)c1` (stereo not drawn) belongs 5.21%.
`CCCCN=Cc1sc2ccc(OCC)cc2c1O`: the “hERG current change (%, negative = inhibition) at 1uM” value turned out to be 12.7%.
`COc1ccc([C@H]2[C@H](C(=O)C(C)(C)C)N3N=Cc4ccccc4C3[C@]23N=C(c2ccccc2)OC3=O)cc1OC` (stereo partly drawn): the “hERG current change (%, negative = inhibition) at 1uM” value was 7.61%.
To `CC1=NCCN1CCNC(=O)Nc1ccc(F)cc1` belongs 14.9%; to `c1ccc(N2CCN(Cc3cn4cccnc4n3)CC2)cc1`, 11.3%.
To `CCC(=O)N1CCc2cc(S(=O)(=O)CCC(=O)NCc3ccc(OC)cc3)ccc21` belongs 9.06%; to `CCOC(=O)N1CCN(C(=O)c2ccc(CN(c3ccc(C)c(C)c3)S(C)(=O)=O)cc2)CC1`, 2.46%; to `CCC(C)NCCOCCOc1ccc(Cl)c2ccccc12.O=C(O)C(=O)O` (stereo not drawn), 6.37%.
Then `CSCC[C@H](NC(=O)[C@H](Cc1ccccc1)n1c(=O)[nH]c2ccccc2c1=O)C(=O)N[C@@H](Cc1ccccc1)C(=O)O`, with 11.4%.
With `NC(=O)c1noc(C(=O)N(CC(=O)NC2CCCC2)Cc2ccc3c(c2)OCO3)c1N`, the “hERG current change (%, negative = inhibition) at 1uM” value was found to be 11.4%.
With `O=C(NN1C(=O)C2C(c3ccccc3)C=CC(c3ccccc3)C2C1=O)c1ccccc1` (stereo not drawn), the “hERG current change (%, negative = inhibition) at 1uM” value is listed as 12.9%.
Then `O=C(NC(=S)N1CCOCC1)c1cc2ccccc2o1`, with 8.7%; and `Cc1cccc(NC(=O)CSc2nnc(C)c(=O)n2N)c1C`, with 12.4%; and `CC1(OC(=O)c2ccc(Cl)nc2)C(=O)C=C2C=C(c3ccsc3)OC=C2C1=O` (stereo not drawn), with 12.9%.
For the molecule `COc1ccc(NC(=O)CN(C)C(=O)c2cc3c(cc2Cl)N2CCCCCC2=NS3(=O)=O)cc1`, the “hERG current change (%, negative = inhibition) at 1uM” value came to 19.5%.
To `CCOC(=O)C1CCN(C(=O)C2CCC(=O)N(CC3CCCCC3)C2)CC1` (stereo not drawn) belongs 9.22%.
Then `CSc1oc(-c2ccco2)nc1S(=O)(=O)c1ccc(C)cc1`, with 15.8%; and `O=C(/C=C/c1cccc([N+](=O)[O-])c1)NCCSCc1ccc(Cl)cc1`, with 2.23%.
Regarding `CCc1cc(=O)oc2cc(OCC(=O)N3CCC(C(=O)O)CC3)ccc12`, the “hERG current change (%, negative = inhibition) at 1uM” value is 9.74%.
To `COc1ccc(CN2CCC(N3CC(C)OC(C)C3)CC2)c(OC)c1.O=C(O)C(=O)O` (stereo not drawn) belongs 9.1%.
Then `CCOC(=O)Cn1c(C)c(Br)c(COC)c(C#N)c1=O`, with 14.8%; and `COc1ccc(CNC(=S)N/N=C(\C)c2ccc(OC)cc2)cc1`, with 11.3%; and `COc1ccc(-c2c(C(F)(F)F)oc3cc(OCC(=O)Nc4ccccc4C(F)(F)F)ccc3c2=O)cc1OC`, with 11.3%.
For the molecule `O=C1CNC(=S)N1CCc1ccccc1Cl`, the “hERG current change (%, negative = inhibition) at 1uM” value stood at 12.3%.
Then `CCOc1ccc(C(=O)NC(=S)Nc2ccccc2N2CCC(C)CC2)cc1[N+](=O)[O-]`, with 10.9%; and `COc1cccc(C2=NN(C(C)=O)C(c3cccs3)C2)c1` (stereo not drawn), with 16.3%.
To `C/C(=N/NC(=O)CNC(=O)Cc1ccc(Cl)cc1)c1ccco1` belongs 5.31%; to `CCOc1ccc(-c2ccc(SCC)nn2)cc1`, 11.7%.
To `CS(=O)(=O)c1ccc2nc(NC(=O)Nc3cccc(Cl)c3)sc2c1` belongs 4.79%.
On to `O=C(c1ccc(Cl)c(Cl)c1)c1cnc(Nc2ccccc2)s1`, for which the “hERG current change (%, negative = inhibition) at 1uM” value was determined as 18%.
On to `O=C(Cn1c(-c2ccccc2Cl)nc2ccccc21)Nc1cccc(Cl)c1`, for which the “hERG current change (%, negative = inhibition) at 1uM” value was determined as 9.15%.
To `C=Cn1cc[n+](CC(=O)c2ccc(-c3ccccc3)cc2)c1.[Br-]` belongs 11.3%; to `Cc1ccnc(S(=O)(=O)Cc2ccc([N+](=O)[O-])cc2)n1`, 17.4%.
To `CCO[C@@H]1OC(C(=O)NC2CC2)=C[C@H](c2csc3ccccc23)[C@H]1CCCO` belongs 1.65%; to `CN(C(=O)CN1C(=O)S/C(=C\c2cccc(Cl)c2)C1=O)C1CCS(=O)(=O)C1` (stereo not drawn), -3.42%.
As for `COc1ccc(C(=O)[C@H]2[C@H]3C(=O)N(c4ccc(C)cc4)C(=O)[C@H]3C3C=CC=NN32)cc1` (stereo partly drawn), the “hERG current change (%, negative = inhibition) at 1uM” value is reported as -6.28%.
For the molecule `CN(C)S(=O)(=O)c1cccc(C(=O)N2CCN(Cc3ccccc3)CC2)c1`, the “hERG current change (%, negative = inhibition) at 1uM” value came to 7.04%.
As to `CCOCCCNC(=O)c1ccc(CS(=O)(=O)c2cccc(C(F)(F)F)c2)o1`, the “hERG current change (%, negative = inhibition) at 1uM” value stood at 13.5%.
As to `Cc1cccc(NC(=O)Nc2ccc(C#N)cc2)n1`, the “hERG current change (%, negative = inhibition) at 1uM” value is on record as 8.9%.
Then `COC(=O)c1cn(NC(=O)c2ccc(OC)c(OC)c2)c(=O)c2ccccc12`, with 8.75%; and `CC1=C(C)CC2C(C1)C(=O)c1ccc(Br)cc1S2(=O)=O` (stereo not drawn), with 3.11%.
